We go through 22 molecules from publication PMC12136788.

Changes are numbered by the printed parent chain. Some of the results follow.

B1: 81634765_81635152_1842_CDS_ENSG00000153956_ENST00000356860|human|control|control (ssRNA)
RNA: GGGAGUUCUACAGUCCGACGAUCAACAUAACCAUUAGGAUCGAUUGCAAAGUAAUACCCAUUGGGGCACAGUGUAAAACGUGGUGUCAGUCUUUUAAUAUCUUCCAAAGACACAUCUACUCCCAUCACACCAAGAAUCAGCUGCAACAGAGGAUUGAGCAUCA
B2: chr2:48026839:48026840:+_ENSG00000116062_ENST00000540021|hu_hu|hu_hu_hu_mus_False|68_68 (ssRNA)
RNA: GGGAGUUCUACAGUCCGACGAUCAUAGUGAGCCACUAGCGUCCUAAAUCUGGAACAGUGGCGGUCAUCUGAAAACUGGCCGAUGAAAAACUUGCCCAGUGAAGUGUCCACAAAGCAAACACCAUACACACGAGUGUGACCAGACAACAGAGGAUUGAGCAUCA
B3: chr14:89338683:89338684:+_ENSG00000165533_ENST00000346301|hu_hu|hu_hu_hu_mus_False|68_108 (ssRNA)
RNA: GGGAGUUCUACAGUCCGACGAUCGUGGUUGUUGUUGACCAGGGCCAGCCUGAAGCAUUGGUGGGCCAAAUUUGUAUCUCCGAUUCCCACAGCUAUGUGCCCCAGGUUGUACCAGACAUCAGCUGCCUCUUCUUCAUUUUCAGCCAACAGAGGAUUGAGCAUCA
B4: chr11:54532201:54532202:-_ENSMUSG00000052298_ENSMUST00000064104|mus_hu|motif|central (ssRNA)
RNA: GGGAGUUCUACAGUCCGACGAUCUAGGAUUUAAACAAACAUUUUAAUGAGAACACAAACCACUGACUCUGGCUUAACACCACACUCGGACAGAAAAGAAGAAACCUUUACAGAAAUAUUUGAAAUAUACAAAAUUCGUGCAAGCAACAGAGGAUUGAGCAUCA
B5: chr3:51263940:51263941:+_ENSMUSG00000063273_ENSMUST00000029303|mus_mus|FALSE|FALSE (ssRNA)
RNA: GGGAGUUCUACAGUCCGACGAUCGUAAAAUGGAUGCUGUCGAAGUACAUCUUCUAGUUUUAAUAAGUCCACAUAUGAUCUAAGGGUGAUCUUCCUCAUACAGUAUGUAUGAAAGUCAAACUGGUCAUCGGUGAUUUCUAUAAACAACAGAGGAUUGAGCAUCA
B6: chr11:18503389:18503390:-_ENSG00000074319_ENST00000251968|hu_hu|hu_hu_hu_mus_True|48_88 (ssRNA)
RNA: GGGAGUUCUACAGUCCGACGAUCAUUUUCCAUUUUCUCCAGAGCAGAACUGAGUUCUUCAUCCUUCUUUUUCAAAAGUUCUAUGUUUUUAUCAACCUCAGCUACUUCUUGAUCUAAGCGGGUGACCAUCUCUUCCAGUUUCUGCAACAGAGGAUUGAGCAUCA
B7: chr8:117878989:117878990:-_ENSG00000164754_ENST00000297338|hu_hu|hu_hu_hu_mus_True|1_18 (ssRNA)
RNA: GGGAGUUCUACAGUCCGACGAUCCCAGAGGCCCUCGUUUACUGAGGACAAAAUGUGCGUAGAACAUUUUUCUUAUUUGCUAUGAAAUAAGAAGAAACCUGGAUCUCGGCGGGGAGCUUGGGCGGGCGGGUGGCCCGGGGGAGGCAACAGAGGAUUGAGCAUCA
B8: chr7:34932688:34932689:-_ENSMUSG00000052997_ENSMUST00000102746|mus_hu|FALSE|FALSE (ssRNA)
RNA: GGGAGUUCUACAGUCCGACGAUCAAGAAGCUUCUUUCUUGGGUUUGGUUGUUUAUUCAAAAAAAUUGUUCUGCACUGGUCUAUUUUUCCUGAUAAAAUCUUCAAUCCUUCCAAUACUAUCAACCCAGCAAUUACUGCAUUAGUCAACAGAGGAUUGAGCAUCA
B9: chrX:71549400:71549401:+_ENSMUSG00000019087_ENSMUST00000019231|mus_hu|mus_mus_mus_hu_False|58_108 (ssRNA)
RNA: GGGAGUUCUACAGUCCGACGAUCGCAAGGAAGAGGAGGAAGCUCUUCAGUCCAGUGCGCUGCAGGGUGGGAAAGCACAACCUAGACCACCGUCCCACCCUCAACCCCCCCACUGGCACAGGGUCACACAAUCUGGGUCAAAGACAACAGAGGAUUGAGCAUCA
B10: chr7:149068622:149068623:-_ENSMUSG00000025139_ENSMUST00000001950|mus_hu|mus_mus_mus_hu_False|48_48 (ssRNA)
RNA: GGGAGUUCUACAGUCCGACGAUCGUGAGGCCUCUGAGUGUGGCUUGUGGUCUGUCCUGGGUUAGAGUUGUUAAUAUCACGGAACAUACCACUUAAGACGUUCCAGUCCCGCCUGACACCUUCAUUCCCAAUGGAGAAGAAAUCCAACAGAGGAUUGAGCAUCA
B11: chr12:16048344:16048345:+_ENSG00000023734_ENST00000419869|hu_hu|hu_hu_hu_mus_True|18_38 (ssRNA)
RNA: GGGAGUUCUACAGUCCGACGAUCAGAUCGUCCAUAAGUAAUAACCAAAAUCUCUCCUUCAGGAAUAUACUCCAUGCUGCUAACAGACAUAUUAAAAUUUAGAGAUUUCACUUCUGUCAUAGUAGCAUGAUCCCAGAGCCGAACCAACAGAGGAUUGAGCAUCA
B12: chr4:107013644:107013645:+_ENSMUSG00000057375_ENSMUST00000075693|mus_mus|motif|central (ssRNA)
RNA: GGGAGUUCUACAGUCCGACGAUCCACAUAAUGGUAUGUCUUCUCUCCCAGAUGGAUUAGGAAGUUAGAAAGGUUCCCACGGAUUGCGGUGGCAAAGACCAACGUGGCACAUAUCCAAAAGGGACCAUAGAGAUCUGGAUUGCUCAACAGAGGAUUGAGCAUCA
B13: chr11:18503389:18503390:-_ENSG00000074319_ENST00000251968|hu_hu|hu_hu_hu_mus_True|18_108 (ssRNA)
RNA: B6 RNA with C36U, G51U, C96U, G117A, G123A
B14: chr12:48362563:48362564:+_ENSG00000134291_ENST00000256686|hu_hu|hu_hu_hu_mus_False|78_78 (ssRNA)
RNA: GGGAGUUCUACAGUCCGACGAUCUCCGUCAAGCCCUUCGAUAGACCCUUGCGGGGGUGGUAAAAACCACUUUGUAUGGGGAAGGAAAAGAAACGCCAAAAACUUUCCAAAAAGCGGGGGUGGGGUGAGGCGGGAGGGGGAGGUCAACAGAGGAUUGAGCAUCA
B15: chr12:39687547:39687548:-_ENSG00000139116_ENST00000551264|hu_mus|motif|central (ssRNA)
RNA: GGGAGUUCUACAGUCCGACGAUCUUAGGAAAUCAACAGCUCACCGUCCCAGAAUCCGUGCCCAGCACUAACAACACAACGUCGGCGCAGCAUUUCAAUCCUGAGCACAGAAUGAAGAACAACUGAAAGCUUUGGUCAAUACAGCAACAGAGGAUUGAGCAUCA
B16: chr2:232320318:232320319:-_ENSG00000115053_ENST00000322723|hu_hu|hu_hu_hu_mus_True|18_38 (ssRNA)
RNA: GGGAGUUCUACAGUCCGACGAUCACUAUUAAAGUCUACAAAACCAAACCCUUUGGAAGAACCAGUUUCCCGAUCAGUGACUAUUCUUGCACGAACAGAGCCGUCAAAUGAUUCUUUUAAUGUCUCUUCAGUGGUAUCCUCAGACAACAGAGGAUUGAGCAUCA
B17: chr15:80429895:80429896:+_ENSG00000086666_ENST00000558494|hu_hu|motif|central (ssRNA)
RNA: GGGAGUUCUACAGUCCGACGAUCUCAAGAAUUUUGUAUUCCAGCAGGAGUUCAAAUCUUUUGGAUCUUUUCACCAACAACGGCUGGAUUUUCUUUUCUGAUUUUCUCAGCAGCAUCGGCUUUGUAAUUGUAAGAGCAAUUGUGCAACAGAGGAUUGAGCAUCA
B18: 35989974_35990094_3696_CDS_ENSMUSG00000061607_ENSMUST00000082337|mouse|control|control (ssRNA)
RNA: GGGAGUUCUACAGUCCGACGAUCGAUAACAGGCUGUUCUAUAGAGGUGAGAGGCUGAAGUUCAGGGCCAGUGGAGACAACUGAUUCUGGGGUCCUGACAGAAGACUUACGUGGUCUGCCCCGAGUGACCCGAGAAGUGGGUUUCAACAGAGGAUUGAGCAUCA
B19: 107164976_107165096_396_CDS_ENSG00000125266_ENST00000245323|human|control|control (ssRNA)
RNA: GGGAGUUCUACAGUCCGACGAUCGGCACAGUUGAGGAGAGGGGUAUUUUCCUUCUUAAUAGUGCAUCUGUCUGCUUGGUCUUUAUCAACCAUAUAAACUUUAUAAUAUUCAUACUGGCCAACAGUUUUAGAGUCCACUUUGGGCAACAGAGGAUUGAGCAUCA
B20: chr3:179287964:179287965:+_ENSG00000136518_ENST00000429709|hu_hu|hu_hu_hu_mus_True|8_58 (ssRNA)
RNA: GGGAGUUCUACAGUCCGACGAUCCUUGAGUGGUGAGAUGGCCUCCAUGUUCUCCCUGGGCACGCGGAGGGCAUUGGUAUCUAUGUAGUAGGUGGGCCCGCCCUGCUUGCCUUUGUCACCAUCAAUCUCCAUUAAUGUACUUCCCAACAGAGGAUUGAGCAUCA
B21: chr8:59359966:59359967:+_ENSG00000215114_ENST00000399598|hu_hu|FALSE|FALSE (ssRNA)
RNA: GGGAGUUCUACAGUCCGACGAUCCGCAAAUUCAGGACGAGACUGUACAAUAAAGUUCCGGACAUCCAGGAUCCUGUGUGUACUAUUGAAUCUUUGUAUCAAACGACUCCCAUCUGCUAACCUGAUUUGAAUUUUUGUUGUUGGCAACAGAGGAUUGAGCAUCA
B22: chr11:46405157:46405158:+_ENSG00000110492_ENST00000395566|hu_hu|hu_hu_hu_mus_False|28_88 (ssRNA)
RNA: GGGAGUUCUACAGUCCGACGAUCCCCUCCCCACUUUGGGCACUUGGUGAGAGGGACAGAGGACAGGCGUGAUUGACAGAGCUGACAGGAAGACAAAAGGCACUGGUGGGUCACAUCUUGGGCCUGUGGGAGAGGAGGGCUCCGCAACAGAGGAUUGAGCAUCA

The target in this test is T1, UNK ZnF1-3 (human, UniProt Q9C0B0 31-174).
T1 sequence: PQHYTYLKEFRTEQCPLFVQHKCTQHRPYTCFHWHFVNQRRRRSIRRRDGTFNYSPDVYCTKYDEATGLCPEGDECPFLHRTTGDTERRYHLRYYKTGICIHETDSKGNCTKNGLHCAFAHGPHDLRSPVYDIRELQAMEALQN
In words: nsRBNS (natural sequence RNA bind-n-seq); RBNS binding buffer (assumed for nsRBNS): 25 mM Tris pH 7.5, 150 mM KCl, 3 mM MgCl2, 0.01% Triton X-100, 500 ug/ml BSA, 20 U/ml SUPERase-In, 4 C; UNK is unkempt and MSI1 is Musashi-1; names of the RNAs are library labels; protein concentration not given here; high values mean tight binding.
In turn, B1 came in with a binding signal of 1.51 enrichment R.

The molecule B2 registered a binding signal of 1.16 enrichment R. B3: the binding signal was 0.571 enrichment R. The molecule B4 gave a binding signal of 1.81 enrichment R. Next, B5: 0.906 enrichment R; B6: 0.457 enrichment R; B7: 1.28 enrichment R. Next, B8: 0.761 enrichment R; B9: 1.36 enrichment R; B10: 0.661 enrichment R. Next, B11: 0.986 enrichment R; B12: 0.946 enrichment R. For the molecule B13, the binding signal was determined as 0.423 enrichment R. As to B14, the binding signal came out at 2.07 enrichment R.

Take B15: the binding signal amounted to 1.03 enrichment R. In the case of B16, the binding signal amounted to 0.821 enrichment R.

As to B17, the binding signal amounted to 0.785 enrichment R. As to B18, the binding signal was determined as 0.965 enrichment R.

In turn, B19 returned a binding signal of 1.62 enrichment R. B20 showed a binding signal of 0.687 enrichment R. The molecule B21 displayed a binding signal of 1.1 enrichment R. Next, B22: 2.55 enrichment R.
